The text below walks through data of PubChem BioAssay AID463173 (ICCB-Longwood Screening Facility, Harvard Medical School, 2010).

SMILES strings stand for the structures. About 1,700 (3.3%) of roughly 52,000 compounds were called active. No stated cut-off is given here; in the data, active means survival mostly below about 52% (no sharp cut-off); inactive means mostly above about 56%. Some of the results follow.

The test system of the assay is Wild type. Nature of the assay: S. aureus survival, RN4220 and DeltatarO strains – OD600, teichoic acid synthesis inhibitors, primary screen (AID 463173). The note with it: S. aureus RN4220 wild type/DeltatarO growth, OD600, 18 h, hits give low values, screened at 18.75 µg/mL (by protocol).
As for `Cc1ccccc1NS(=O)(=O)c1ccc(Br)s1`, the survival is inactive: 126%.
Turning to `CC(C)(C)S(=O)(=O)c1cccc2ccccc12`, the survival was inactive: 117%.
Next, `Cc1ccc(C(C)(C)C)c(OCC(=O)NCCc2nc3ccccc3[nH]2)c1`: inactive: 70%; `CN(Cc1ccccc1)S(=O)(=O)c1ccc(F)c(C(=O)Nc2cccc(Cl)c2Cl)c1`: inactive: 159%.
In the case of `Cc1ccoc1C(=O)NCc1occc1C(=O)O`, the survival is inactive: 103%.
As for `CCN(CC)c1cc2c(cc1F)c(=O)c(S(=O)(=O)c1cc(C)ccc1C)cn2Cc1ccccc1`, the survival was inactive: 85%.
Next, `Cc1c(/C=C(\C#N)C(=O)Nc2cccc(Cl)c2)c2ccccc2n1Cc1ccccc1Cl`: inactive: 127%.
Next, `CCOC(=O)c1c(NC(=O)c2ccc(S(=O)(=O)N(CCOC)CCOC)cc2)sc2c1CC(C)(C)NC2(C)C`: inactive: 71%.
Next, `CCOc1ccc(C2=NC(c3cccs3)=Nc3ccc(C(C)C)cc3N2)cc1`: inactive: 84%; `CC(C)(Cc1nc2ccccc2[nH]1)c1nc2ccccc2[nH]1`: inactive: 95%; `N#Cc1c(N2CCOCC2)nc(N2CCOCC2)c2c1CCN(Cc1ccccc1)C2`: inactive: 112%.
Regarding `Cc1cccc(CC2C(=O)Nc3ccccc32)c1` (stereo not given), the survival was inactive: 79%.
Turning to `O=S(=O)(c1ccccc1)N1CCCc2ccccc21`, the survival was inactive: 128%.
As for `CCOc1ccccc1-n1nnc(-c2nc(-c3ccccc3)no2)c1N`, the survival is inactive: 97%.
Next, `CCOC(=O)c1cccc(NC(=O)C2CCN(S(=O)(=O)c3ccc4c(c3)oc(=O)n4C)CC2)c1`: inactive: 81%.
Take `COc1ccc(S(=O)(=O)N(CCc2ccccc2)CC(=O)Nc2cccc(OC)c2)cc1`: the survival was inactive: 118%.
Next, `CC(C)(C)OC(=O)N1CCN(C(=O)OC(C)(C)C)CC1`: inactive: 109%; `COc1ccccc1N1CCN(c2ncnc3c2cnn3C)CC1`: inactive: 72%; `CCc1ccc(C(=O)COC(=O)C(Cc2c[nH]c3ccccc23)NC(=O)c2ccc(Br)cc2)cc1` (stereo not given): inactive: 128%.
In the case of `O=C(CSc1ccccc1)Nc1ccc2c(c1)OCO2`, the survival is inactive: 109%.
Next, `CCOc1ccc(C2c3cc(OCC)c(OCC)cc3CC(=O)N2c2ccc(C(=O)O)cc2)cc1OCC` (stereo not given): inactive: 93%.
As to `Cn1c(C(=O)OCC(=O)NC2CCCCC2)cc2sccc21`, the survival was inactive: 113%.
Next, `CCn1c2ccccc2c2cc(/C=N/NC(=O)c3ccncc3)ccc21`: inactive: 133%; `CCc1cccc(C)c1NC(=O)Cn1ccn(-c2ccc(F)cc2)c(=O)c1=O`: inactive: 83%.
`Cc1nc2ccc(S(=O)(=O)N(C)CC(=O)Nc3ccc(Br)c(C)c3)cc2s1`: the survival is inactive: 79%.
Next, `CCOc1ccc(C2CC(=O)c3c([nH]c(C(=O)OCc4ccccc4)c3C)C2)cc1` (stereo not given): inactive: 94%.
Next, `CC1CCN(C(=O)Cn2nnc3ccccc3c2=O)CC1`: inactive: 100%.
Regarding `COc1ccc(CCN2C(=O)c3oc4ccc(F)cc4c(=O)c3C2c2ccc(C(C)(C)C)cc2)cc1` (stereo not given), the survival is inactive: 70%.
Turning to `O=C(CSc1nc(-c2ccccc2)no1)N1CCCCC1`, the survival is inactive: 79%.
Next, `CCOC(=O)N1CCc2c(sc3c2c(=O)n(CCc2ccccc2)c(=O)n3Cc2ccc(F)cc2)C1`: inactive: 107%; `COc1ccc(C(=O)CN2C(=O)N(c3ccc(C(C)=O)cc3)S(=O)(=O)c3ccccc32)cc1`: inactive: 80%; `O=C(O)CN(c1cccc(C(F)(F)F)c1)S(=O)(=O)c1ccccc1`: inactive: 108%.
For the compound `Cc1ccccc1-c1nn2c(=O)cc(CN3CCN(C(=O)c4ccc(C(C)(C)C)cc4)CC3)nc2s1`, the survival was inactive: 113%.
Next, `COc1ccc(S(=O)(=O)N2CCC(n3c(C(F)(F)F)nc4cccnc43)CC2)cc1OC`: inactive: 93%; `Cc1ccc(Cn2nnc(C(=O)Nc3ccc(F)c(F)c3)c2N)cc1`: inactive: 89%.
Next, `CCOC(=O)c1cc(C(=O)OCC)c(=S)[nH]c1O`: inactive: 103%.
Next, `Cc1ccc(N(C)C(=O)C2CCN(S(=O)(=O)c3ccc4c(c3)CCCN4C(=O)C3CCC3)CC2)cc1`: inactive: 71%; `O=C(Nc1ccc(N2CCOCC2)cc1)c1ncn[nH]1`: inactive: 116%; `CCOc1ccccc1-n1cc2c(c1-c1ccc(OC)cc1)c(=O)n(C)c(=O)n2C`: inactive: 84%.
Regarding `COC(=O)c1ccc(NC(=O)CN2CCN(c3ccc(Cl)cc3)CC2)cc1`, the survival was inactive: 69%.
Next, `O=C1CC(c2ccccc2)Cc2[nH]c(=O)c(C(=O)Nc3cccc(Cl)c3)cc21` (stereo not given): active: 0%.
Next, `COc1ccc(NC(=O)c2cn(-c3ccccc3)nc2-c2ccc(C)cc2)cc1`: inactive: 93%.
Consider `CCC(=O)Nc1cccc(NC(=O)CSc2nnnn2C2CCCC2)c1`, for which the survival is inactive: 89%.
With `Cc1c(Cl)cccc1NC(=O)CN1C(=O)COc2ccc(S(=O)(=O)Nc3ccccc3)cc21`, the survival is inactive: 75%.
As for `COc1ccc(NC(=O)c2ccc3c(c2)CCN3S(=O)(=O)c2ccc(C)cc2)cc1Cl`, the survival was inactive: 109%.
For the compound `CCOC(=O)c1cccc(NC(=O)C(C)n2c(C)c3cnn(-c4ccccc4)c(=O)c3c2C)c1` (stereo not given), the survival was inactive: 128%.
Next, `CCCOC(=O)CSc1nnc2ccc3ccccc3n12`: inactive: 96%; `O=C(CSc1nc2ccccc2nc1Cc1ccccc1)Nc1ccc2c(c1)OCO2`: inactive: 83%.
For the compound `COc1ccc(-c2cc3nccc(C4CCN(C(=O)OC(C)(C)C)CC4)n3n2)cc1`, the survival was inactive: 85%.
As for `O=C(NC1CC2CCCC(C1)N2CC(=O)N1CCCc2ccccc21)c1ccccc1` (stereo not given), the survival was inactive: 97%.
As for `CC(C)NS(=O)(=O)c1ccc2nc(NC(=O)c3cncc(Br)c3)sc2c1`, the survival was inactive: 68%.
Next, `CCCOc1ccc(C2C3CN(CC)CC=C3C(C#N)=C(N)C2(C#N)C#N)cc1OC` (stereo not given): inactive: 74%.
Next, `Cc1ccc(NC(=O)CN(C)S(=O)(=O)c2ccc3nc(C)sc3c2)c(C)c1`: inactive: 93%; `CCCSCCCNC(=O)c1ccc(Cn2c(=O)c3cccn3c3cccnc32)cc1`: inactive: 89%; `COc1ccc(Cl)cc1NC(=O)CCc1c(C)nc2c(c1C)c(=O)n(C)c(=O)n2C`: inactive: 76%.
Next, `COc1cc(NC(=O)CSc2nc3nc(C)c(Cc4ccc(C)cc4)c(C)n3n2)cc(OC)c1`: inactive: 128%; `Cc1nc(-c2ccccc2)sc1CCNC(=O)c1ccco1`: inactive: 117%.
Consider `O=C(Nc1ccccc1C1CC1)c1cccs1`, for which the survival is inactive: 119%.
For `CCc1ccccc1NC(=O)CSc1ncc2c(n1)-c1ccccc1N(Cc1ccc(C)cc1)S2(=O)=O`, the survival is inactive: 78%.
Turning to `CCN(C(=O)Cn1ncc2c1-c1cc(C)ccc1OC2)c1cc(Cl)ccc1OC`, the survival was inactive: 23%.
Next, `Cc1ccc(S(=O)(=O)c2cn(Cc3ccccc3)c3cc(N4CCCC4)c(F)cc3c2=O)cc1C`: inactive: 74%; `COc1ccccc1CNS(=O)(=O)c1c(C)nc2sccn2c1=O`: inactive: 86%; `CCN(Cc1ccccc1)C(=O)CCNS(=O)(=O)c1ccc2c(c1)CC(C)N2C(C)=O` (stereo not given): inactive: 114%.
Consider `CCOC(=O)c1ccccc1NS(=O)(=O)c1c(-c2ccc(C)cc2)csc1C(=O)OC`, for which the survival is inactive: 134%.
Next, `COc1cccc(CNC(=O)CCc2c(C)c3cc4c(C)c(C)oc4cc3oc2=O)c1`: inactive: 111%.
Regarding `CC1CCN(C(=O)CCCOc2ccc(Cl)cc2)CC1`, the survival was inactive: 109%.
Turning to `COCCNC(=O)Cn1nnc(-c2ccc(OC)cc2)n1`, the survival was inactive: 103%.
Next, `O=C(Nc1ccc(NC(=O)c2cccs2)cc1)c1ccc(Br)cc1`: inactive: 135%; `CC(C)(C)C(=O)Nc1ccc2nc(SCC(=O)N3CCCC3)sc2c1`: inactive: 96%; `CCOC(=O)C(CC)Sc1nnc(COc2ccc(Cl)c(C)c2)n1CC` (stereo not given): inactive: 103%.
With `O=C(OCc1ccccc1Cl)c1ccc(-c2nnn(Cc3ccccc3)n2)cc1`, the survival was inactive: 64%.
Consider `CC(C)Oc1ccc(CNC(=O)c2ccc(NC(=O)c3nsc4ccccc34)cc2)cc1`, for which the survival is inactive: 64%.
Next, `COc1ccc(/C=C(/C#N)c2nc(-c3ccc(-c4ccccc4)cc3)cs2)cc1`: inactive: 66%; `CCN(CCCNC(=O)c1cc2cc3cc(C)ccc3nc2s1)c1cccc(C)c1`: inactive: 75%.
Next, `O=C(O)CCN1C(=O)c2ccc(Oc3ccc4c(c3)C(=O)N(CCC(=O)O)C4=O)cc2C1=O`: inactive: 110%.
Next, `Cc1ccc(C)c(NC(=O)C(=O)NCCc2csc(-c3ccc(C(F)(F)F)cc3)n2)c1`: inactive: 69%; `CCC(C)NC(=O)Cn1c(=O)n(-c2ccc(C)cc2)c(=O)c2ccccc21` (stereo not given): inactive: 83%; `O=C1CC(CSc2nnnn2-c2ccccc2)=NN1`: inactive: 128%.
Consider `CCOC(=O)Cn1c(=O)cc(-c2ccccc2)c2c(C)nn(C)c21`, for which the survival is inactive: 136%.
Next, `CCc1ccc(-n2nc(CO)c(C(=O)NCc3ccccn3)n2)cc1`: inactive: 94%.
As for `Cc1ccccc1CSc1nc2nc(C)c(Cc3ccccc3)c(C)n2n1`, the survival was inactive: 66%.
Next, `COc1ccc(OC)c(CCNC(=O)c2ccc(CS(=O)Cc3cccc(Cl)c3)o2)c1` (stereo not given): inactive: 79%; `CCc1ccccc1N(CC)C(=O)c1cc2c(s1)-c1ccccc1OC2`: active: 9%.
Next, `Cc1cc(C)nc(NC(N)=NC(C)c2ccccc2)n1` (stereo not given): inactive: 97%; `Cc1oc2ncnc(N3CCCCC3)c2c1C(=O)NCC1CCN(Cc2ccc(F)cc2)CC1`: inactive: 90%.
With `Cc1nc(-c2ccccc2)sc1-c1ccc(SCC(=O)Nc2ccc(F)cc2F)nn1`, the survival was inactive: 30%.
Regarding `CC(Sc1oc(-c2ccco2)nc1S(=O)(=O)c1ccc(Br)cc1)c1ccccc1` (stereo not given), the survival is inactive: 69%.
Next, `COCCNc1nc(NCc2ccccc2OC)c2cnn(C)c2n1`: inactive: 97%; `CCC(CC)c1nn2c(=O)cc(COc3ccc(NC(=O)c4ccc(Cl)cc4)cc3)nc2s1`: inactive: 86%.
Consider `COc1ccc(-n2ncc(C(=O)N3CCN(c4ccccn4)CC3)c2C2CCN(C(=O)OC(C)(C)C)CC2)cc1`, for which the survival is inactive: 77%.
